Assay results taken from paper PMC4336329 (PLoS ONE, 2015).
The campaign covered roughly 310,000 compounds. About 2,200 (0.71%) showed an effect of 50% or more. Effects have a minus sign here. The list shows a part of the results. Where a SMILES comes first, the peptide text is derived from it. The star is where a group is joined. Cbz = O=C(OCc1ccccc1)*

target: human ether-à-go-go-related gene (hERG) potassium channel (human, UniProt Q12809); experiment: primary screen, population patch clamp on CHO cells stably expressing hERG
Sequence (Q12809 whole entry, looked up): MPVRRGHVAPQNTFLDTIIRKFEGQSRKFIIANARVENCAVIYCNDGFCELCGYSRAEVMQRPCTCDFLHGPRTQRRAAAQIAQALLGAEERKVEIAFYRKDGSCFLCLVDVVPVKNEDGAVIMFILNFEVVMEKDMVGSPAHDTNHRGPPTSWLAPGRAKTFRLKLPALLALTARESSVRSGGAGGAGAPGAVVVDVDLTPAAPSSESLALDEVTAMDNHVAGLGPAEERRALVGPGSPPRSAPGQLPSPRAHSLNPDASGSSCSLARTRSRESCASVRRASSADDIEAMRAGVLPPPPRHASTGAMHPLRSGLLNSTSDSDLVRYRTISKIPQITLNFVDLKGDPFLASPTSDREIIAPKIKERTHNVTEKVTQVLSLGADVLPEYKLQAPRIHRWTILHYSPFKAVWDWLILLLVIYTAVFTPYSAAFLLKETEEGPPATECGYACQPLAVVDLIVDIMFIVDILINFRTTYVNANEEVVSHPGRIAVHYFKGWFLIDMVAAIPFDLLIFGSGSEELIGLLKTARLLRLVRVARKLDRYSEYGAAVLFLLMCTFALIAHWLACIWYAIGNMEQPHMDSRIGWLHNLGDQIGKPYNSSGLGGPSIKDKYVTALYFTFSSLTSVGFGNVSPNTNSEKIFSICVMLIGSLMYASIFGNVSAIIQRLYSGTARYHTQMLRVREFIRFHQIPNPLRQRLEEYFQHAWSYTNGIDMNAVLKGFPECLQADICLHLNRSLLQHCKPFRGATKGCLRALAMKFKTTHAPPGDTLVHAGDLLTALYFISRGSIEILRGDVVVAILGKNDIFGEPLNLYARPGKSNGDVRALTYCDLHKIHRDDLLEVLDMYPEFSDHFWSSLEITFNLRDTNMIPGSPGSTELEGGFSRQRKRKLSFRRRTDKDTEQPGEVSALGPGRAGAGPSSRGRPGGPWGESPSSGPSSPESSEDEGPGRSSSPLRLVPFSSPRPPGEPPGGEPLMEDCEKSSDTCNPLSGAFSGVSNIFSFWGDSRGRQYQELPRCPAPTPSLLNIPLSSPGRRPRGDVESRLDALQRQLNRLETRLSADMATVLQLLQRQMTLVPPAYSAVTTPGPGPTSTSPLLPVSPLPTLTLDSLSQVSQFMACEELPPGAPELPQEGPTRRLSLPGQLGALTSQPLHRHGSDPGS

| Compound | hERG current change (%, negative = inhibition) at 1uM |
| --- | --- |
| O=C(CSc1n[nH]c(-c2ccccc2F)n1)Nc1cc(F)ccc1F | 3.35% |
| COC(=O)c1cc(OC)c(OC)cc1NC(=O)Nc1ccccc1F | 8.43% |
| Cc1cccc(N(C)C(=O)COc2cc(=O)n(C)c3ccccc23)c1 | 3.07% |
| Cc1nnsc1-c1nnc(SCC(=O)c2ccc(F)cc2)n1C1CC1 | 10.3% |
| COC1CCCN(Cc2cn(C)nc2-c2ccc(Oc3ccccc3)cc2)C1 (stereo not drawn) | 2.4% |
| COCc1cc(C)nc2sc(C(=O)Nc3cccc(OC)c3)c(N)c12 | 11.2% |
| CC(=O)Nc1ccc(NC(=O)CSc2ccc(-c3ccc(-n4ccnc4)cc3)nn2)cc1 | 15.4% |
| COc1ccc(CCNC(=O)CN2CCN(c3cccc(C(F)(F)F)c3)CC2)cc1 | -10% |
| Nc1cc(N)c(OCC(F)(F)F)cc1OCC(F)(F)F | 12.5% |
| Cc1c(C)n2c(SCC(=O)NC3CCCCC3)nnc2[nH]c1=O | 5.04% |
| CCOC(=O)C1=C(COC(=O)COc2ccccc2OCC)NC(=O)NC1C (stereo not drawn) | 10.5% |
| CN(C1CCCC1)C1CCN(C(=O)CNC(=O)/C=C/c2ccc(F)cc2)CC1 | -11.1% |
| CCNS(=O)(=O)c1ccc(NC(=O)CC(C)c2ccccc2)cc1 (stereo not drawn) | 5.94% |
| CS(=O)(=O)N(CC(=O)NCc1ccc2c(c1)OCO2)c1ccccc1 | 7.84% |
| CCCc1cc(=O)oc2c(C)c(OCC(=O)N3CCC(C(N)=O)CC3)ccc12 | 13.3% |
| COc1ccc(/C=C/C(=O)N2CCN(c3ccccn3)CC2)c(OC)c1OC | 5.69% |
| N#CC1=C(S)N(c2ccc(F)cc2)C(c2ccco2)NC1=O (stereo not drawn) | 24.9% |
| Cc1cc(C)c2c(=O)[nH]n(C3CC(C)N(C)CC3C)c2n1 (stereo not drawn) | 14.9% |
| Cc1cccc(NC(=O)CSc2nnc(CNC(=O)c3cccs3)o2)c1C | 5.89% |
| S=C1SCN(Cc2cccnc2)CN1Cc1cccnc1 | 5.84% |
| COCCCN1C(=O)N(c2ccccc2)C(=O)C1CC(=O)Nc1ccccc1 (stereo not drawn) | 13.9% |
| CSc1ccccc1C(=O)Nc1ccc2c(c1)CCC2 | -1.71% |
| CCOC(=O)c1cc(S(=O)(=O)NC2CCC(C)CC2)cn1C (stereo not drawn) | 1.07% |

| Compound | hERG current change (%, negative = inhibition) at 1uM |
| --- | --- |
| CC(C)C(=O)Nc1ccc(Br)cc1Cl | 2.08% |
| CCOC(=O)/C(C#N)=C/Nc1cc(OC)ccc1OC | 8.95% |
| O=C(Cn1cc2c(n1)CCCC2)NCC1CCCO1 (stereo not drawn) | 8.52% |
| Br.CC(C)(C)N1Cc2ccccc2C1=N | 1.21% |
| O=C1CCC/C(=N\NC(=O)COc2ccc(Cl)cc2)C1 | 6.17% |
| Cc1[nH]n(C(N)=S)c(=O)c1N=Nc1ccc(S(=O)(=O)N2CCCC2)cc1 | 9.63% |
| COc1ccc(C(=O)N2CCC(C(=O)c3c(C)cc(C)cc3C)CC2)cc1 | -8.27% |
| O=C(Cn1cnc2c(nnn2Cc2ccc(F)cc2)c1=O)Nc1ccccc1 | 3.63% |
| CC1CN(C(=O)c2ccccc2)C(=Nc2cccc(S(=O)(=O)N(C)C)c2)S1 (stereo not drawn) | 5.14% |
| Cc1ccccc1NC(=O)OCc1cccnc1Oc1ccc(Cl)cc1 | 3.29% |
| CCn1cc(C(=O)NCc2ccc3c(c2)OCO3)c(=O)c2cc(S(=O)(=O)N(C)C)ccc21 | 4.07% |
| Nc1nnc(Cc2ccc(Cl)c(Cl)c2)s1 | 5.65% |
| O=C(C[n+]1cc(-c2ccc(F)cc2)n2c1CCC2)OCc1ccccc1.[Br-] | 7.47% |
| O=C(O)Cc1ccc2ccc3ccccc3c2c1 | 14.1% |
| COc1ccc(C2CC(c3cccs3)=NN2C(=O)CSc2nnnn2C)cc1OC (stereo not drawn) | -5.07% |
| Cc1cc(C)cc(OCc2nnc(SCC(=O)NC3CC3)n2C)c1 | 18.9% |
| Cc1ccccc1NC(=O)C(=O)NCCCN1CCOCC1 | 11.2% |
| CN(CC(=O)Nc1ccccc1C(F)(F)F)CC(=O)N1CCCCCC1 | -1.24% |
| O=C(NCc1csc(-c2cccs2)n1)c1ccsc1 | 6.19% |
| COC(=O)C(C)NC(=O)C1CCCN1C(=O)CNC(=O)OCc1ccccc1 (stereo not drawn) (Cbz-Gly-Pro-Ala-OMe; configuration not given here) | 17% |
| O=C(C#Cc1ccccc1)c1cccc([N+](=O)[O-])c1 | 19.2% |
| CCn1c(Cc2ccccc2)nnc1SCC(=O)Nc1ccc(N2CCOCC2)c(Cl)c1 | 10.6% |
